# Laboratory results as given in article PMC6212790.
# This is one part of the list. At the low end of the ranking, values are background and their order means little.
# Molecular target: T1, GST-Rok-C97-191 (UniProt O34857)
# T1 sequence: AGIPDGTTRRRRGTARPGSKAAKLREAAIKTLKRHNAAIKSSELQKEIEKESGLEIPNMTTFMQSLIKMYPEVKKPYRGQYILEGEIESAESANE
# Experiment: protein binding microarray;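 further: rank score from −0.5 (least bound) to 0.5 (best bound)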
# Conditions: Rok is a gene silencer of Bacillus subtilis; high values mean tight binding; most listed sequences are background and not binding sites; double strand, one strand shown
row,Sequence,binding signal
1,GCTAAATA,0.32 E-score
2,AACATCGT,0.00842 E-score
3,ATGTGCTA,0.107 E-score
4,CGGAACAG,-0.0903 E-score
5,CCAGCTAC,0.00265 E-score
6,CATCTACA,0.0976 E-score
7,GTTTCACA,-0.104 E-score
8,CGGCTACA,-0.00931 E-score
9,CGGAGCAC,-0.152 E-score
10,AATTTATG,0.209 E-score
11,ACCATCCA,-0.091 E-score
12,ATTGACAC,0.0674 E-score
13,CGTTTAGC,0.00399 E-score
14,AGTAGAGA,0.206 E-score
15,TGGGCAAA,0.0179 E-score
16,ACCGCATC,-0.105 E-score
17,CAGCTGAG,-0.23 E-score
18,AAGTCTTC,0.048 E-score
19,TACCAAAA,0.188 E-score
20,AGATGACG,-0.217 E-score
21,GATAACAC,0.29 E-score
22,CCACCCAC,-0.151 E-score
23,CTTCGTGA,-0.0355 E-score
24,TCTGCACA,-0.141 E-score
25,GGCAATAC,-0.0605 E-score

row,Sequence,binding signal
1,CACAGTTA,0.153 E-score
2,GGCTTCCC,-0.38 E-score
3,CACGGCCG,-0.211 E-score
4,CGTAGTCA,-0.102 E-score
5,ATATTGCG,0.213 E-score
6,GGCCGTAC,0.0378 E-score
7,AAAATTCA,0.0675 E-score
8,AGGCCAGA,-0.127 E-score
9,ACATCACA,0.057 E-score
10,ACAAATGA,0.0821 E-score
11,CCCGCTAC,-0.0971 E-score
12,AATAACAG,0.0809 E-score
13,ATGTCCTG,-0.123 E-score
14,CACCGCGC,-0.111 E-score
15,GACGTGTA,0.0493 E-score
16,AATGCTGC,-0.0908 E-score
17,ATTGAGAG,0.0103 E-score
18,ATAAACGC,0.1 E-score
19,GGAGGCAA,-0.106 E-score
20,GCTTATCC,-0.0892 E-score
21,GCGTATGA,0.208 E-score
22,ATGGGACA,-0.107 E-score
23,CACATCGC,-0.12 E-score
24,AATCCATA,0.114 E-score
25,GCGCCAAC,-0.216 E-score

row,Sequence,binding signal
1,CATTACCC,0.0982 E-score
2,AATGGCCA,0.0996 E-score
3,CACTGTTC,-0.112 E-score
4,GAAGGAGA,-0.109 E-score
5,CCTACCTC,0.0789 E-score
6,GAGGCGCC,-0.288 E-score
7,ATCGAGAC,-0.325 E-score
8,ACCCCCGC,-0.246 E-score
9,ATATTTGG,0.114 E-score
10,CGGTTTGC,0.138 E-score
11,TCCGCTAA,0.189 E-score
12,CTAGAAAG,0.113 E-score
13,AGACGCGA,-0.189 E-score
14,AAACTTGA,0.156 E-score
15,ACCTCCTC,-0.153 E-score
16,ATACTTTA,0.196 E-score
17,CAGGGTGC,-0.228 E-score
18,CGGCGGTA,0.123 E-score
19,AAGGGTGC,-0.165 E-score
20,GTTCGACA,0.0856 E-score
21,CCATTAAG,0.018 E-score
22,AGGCCCAT,-0.253 E-score
23,CCATTAAA,-0.149 E-score
24,CAGTTTCA,-0.125 E-score
25,GCATTGCC,-0.0711 E-score

row,Sequence,binding signal
1,ACCCAAGT,0.0146 E-score
2,CTGCTCTC,-0.267 E-score
3,CCAAGTCA,-0.124 E-score
4,GGCGTCTA,-0.241 E-score
5,CGAGTGCC,-0.177 E-score
6,TTCAGGAA,0.0402 E-score
7,ACTGCGGG,-0.0383 E-score
8,AGCTGAGA,-0.152 E-score
9,ACAACCGC,-0.0249 E-score
10,AGATATAG,0.188 E-score
11,AGCACAGG,-0.194 E-score
12,CGGCGTAG,-0.0754 E-score
13,CGGACATC,-0.0996 E-score
14,AACCACTT,-0.00419 E-score
15,TATCGTCA,0.0192 E-score
16,CTTGGAGC,-0.184 E-score
17,TGCCGGAA,0.00624 E-score
18,ATGGGTCC,-0.21 E-score
19,TCCATCCA,0.0675 E-score
20,CGTCCACC,-0.198 E-score
21,GACTGCTC,-0.224 E-score
22,AGTTGGTA,0.213 E-score
23,AAGAGCGA,-0.109 E-score
24,CTGCTTCA,-0.199 E-score
25,AGGTTTCA,-0.208 E-score

row,Sequence,binding signal
1,AGCATACA,-0.095 E-score
2,AGCTTTGC,-0.234 E-score
3,CATGCTTA,0.0132 E-score
4,CCTAGGTA,0.144 E-score
5,CCGGATCC,-0.266 E-score
6,TATAGACA,0.00807 E-score
7,ACTACGAA,0.163 E-score
8,ACCATACA,0.0658 E-score
9,ATAAATCA,-0.0059 E-score
10,ACCGGTCC,-0.156 E-score
11,TCAATGAA,-0.109 E-score
12,AAAGTCCC,-0.253 E-score
13,ACGATGCC,-0.0936 E-score
14,ATACCTAT,0.323 E-score
15,CCTGCGTA,-0.031 E-score
16,TGACGACA,-0.23 E-score
17,ATCCCCCC,-0.26 E-score
18,AGGTGACA,0.055 E-score
19,CGGGCGTA,-0.0765 E-score
20,GGTACTAA,0.249 E-score
21,GAGCGATC,-0.0781 E-score
22,ATTGGGAG,0.0203 E-score
23,CAATGTGA,0.158 E-score
24,AGGGGGAC,-0.31 E-score
25,CCTGTTGC,-0.301 E-score

row,Sequence,binding signal
1,CCACAAAA,-0.0888 E-score
2,AAAGTACC,0.291 E-score
3,CTACTTCC,0.238 E-score
4,CGTGACAC,-0.166 E-score
5,GCATACGA,0.123 E-score
6,TGCGGTAA,0.0217 E-score
7,AAAATGTG,0.218 E-score
8,GGGGTCAA,-0.299 E-score
9,CGGATGGA,0.0108 E-score
10,CCGCTACG,-0.154 E-score
11,GGCAGGCC,-0.335 E-score
12,ATGGGCCC,-0.271 E-score
13,GGCCGACA,-0.327 E-score
14,CTCGCAAA,0.0435 E-score
15,GGCATGAC,-0.224 E-score
16,GATTGGGC,-0.358 E-score
17,CAAGCGAA,-0.223 E-score
18,GACGCCCA,-0.364 E-score
19,AGTAATGG,0.153 E-score
20,ATAGTCAG,0.132 E-score
21,ACTAGTCA,0.228 E-score
22,GATCTATA,0.305 E-score
23,ACTAGATG,0.317 E-score
24,AGGAAGCG,-0.177 E-score
25,AAGACCGA,-0.272 E-score

row,Sequence,binding signal
1,AGCAGCAC,-0.144 E-score
2,CGCGTACA,0.049 E-score
3,GTAAAAGA,0.233 E-score
4,ATGAAGCC,-0.236 E-score
5,TGAAAGAA,0.12 E-score
6,GCCAAAAC,-0.0219 E-score
7,CCTGAGAC,-0.304 E-score
8,TGGGCCAA,-0.218 E-score
9,CAGGACGA,-0.231 E-score
10,GCCCATGA,-0.214 E-score
11,AACGTACC,-0.0927 E-score
12,AAGACGGC,-0.186 E-score
13,ATCCGCAG,0.00726 E-score
14,GCCCCTAA,-0.239 E-score
15,AGTCTCCC,-0.203 E-score
16,AAAAGAGT,0.105 E-score
17,CACAACAA,0.0807 E-score
18,CCTACGCG,-0.16 E-score
19,CGAATAAG,0.0155 E-score
20,AAGAGTCG,-0.189 E-score
21,ACACTGGC,-0.127 E-score
22,GAAAAGGA,-0.0549 E-score
